The chains are these.
B1: TEV protease; numbered along this chain (parent)
chain: MGESLFKGPRDYNPISSSICHLTNESDGHTTSLYGIGFGPFIITNKHLFRRNNGTLVVQSLHGVFKVKDTTTLQQHLVDGRDMIIIRMPKDFPPFPQKLKFREPQREERICLVTTNFQTKSMSSMVSDTSCTFPSGDGIFWKHWIQTKDGQCGSPLVSTRDGFIVGIHSASNFTNTNNYFTSVPKNFMELLTNQEAQQWVSGWRLNADSVLWGGHKVFMVKPEEPFQPVKEATQL

This is one part of the list. The full chains were built here from the parent and the listed change. Inactive controls read about 0.05.

The variants in this assay derive from B1. Put plainly: raw area under fraction-flipped curve 0-4 h after induction (AUC4h, not background-subtracted), DNA-recorder readout of cleavage of the substrate (dimensionless); higher = more cleavage of the substrate by the protease variant. Particulars: temperature: 34 °C; time window: 0-4 h after rhamnose induction.
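Further: Bxb1 expression induced with 0.2% (w/v) L-rhamnose at OD600 near 0.5, cultures sampled hourly, flipped fraction per protease–substrate barcode pair counted by paired-end Illumina sequencing.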

Regarding MGESLFKGPRDYNPISSSICHLTNESDGHTTSLYGIGFGPFIITNKHLFRRNNGTLVVQSLAGVFKVKDTTTLQQHLVDGRDMIIIRMPKDFPPFPQKLKFREPQREERICLVTTNFQTKSMSSMVSDTSCTFPSGDGIFWKHWIQTKDGQCGSPLVSTRDGFIVGIHSASNFTNTNNYFTSVPKNFMELLTNQEAQQWVSGWRLNADSVLWGGHKVFMVKPEEPFQPVKEATQL [H62A], the “area with substrate ENLYFQC” value came to 0.137, the “area with substrate ENLYFQG” value stood at 0.101, the “area with substrate ENLYFQI” value was found to be 0.0361 and the “area with substrate ENLYFQL” value was found to be 0.0754. Also, the “area with substrate ENLYFQM” value came to 0.0997, the “area with substrate ENLYFQN” value worked out at 0.076, the “area with substrate ENLYFQP” value was 0.0604 and the “area with substrate ENLYFQR” value was 0.0557. Further, the “area with substrate ENLYFQS” value was determined as 0.101, the “area with substrate ENLYFQT” value is 0.0644, the “area with substrate ENLYFQV” value came to 0.0802 and the “area with substrate ENLYFQY” value was 0.08.
Take MGESLFKGPRDYNPISSSICHLTNESDGHTTSLYGIGIGPFIITNKHLFRRNNGTLVVQSLHGVFKVKDTTTLQQHLVDGRDMIIIRMPKDFPPFPQKLKFREPQREERICLVTTNFQTKSMSSMVSDTSCTFPSGDGIFWKHWIQTKDGQCGSPLVSTRDGFIVGIHSASNFTNTNNYFTSVPKNFMELLTNQEAQQWVSGWRLNADSVLWGGHKVFMVKPEEPFQPVKEATQL [F38I]: the “area with substrate ENLYFQC” value came out at 0.0872, the “area with substrate ENLYFQD” value came out at 0.0651, the “area with substrate ENLYFQE” value came to 0.0236 and the “area with substrate ENLYFQG” value was 0.105. Moreover, the “area with substrate ENLYFQI” value is 0.0632, the “area with substrate ENLYFQK” value was 0.0344, the “area with substrate ENLYFQM” value worked out at 0.0567 and the “area with substrate ENLYFQN” value turned out to be 0.0733. For the same variant, the “area with substrate ENLYFQR” value amounted to 0.0585, the “area with substrate ENLYFQS” value amounted to 0.0856, the “area with substrate ENLYFQT” value turned out to be 0.0986 and the “area with substrate ENLYFQV” value worked out at 0.056. In addition, the “area with substrate ENLYFQW” value came to 0.0504.
Consider MGESLFKGPRDYNPISSSICHLTNESDGHTTSLYGIGCGPFIITNKHLFRRNNGTLVVQSLHGVFKVKDTTTLQQHLVDGRDMIIIRMPKDFPPFPQKLKFREPQREERICLVTTNFQTKSMSSMVSDTSCTFPSGDGIFWKHWIQTKDGQCGSPLVSTRDGFIVGIHSASNFTNTNNYFTSVPKNFMELLTNQEAQQWVSGWRLNADSVLWGGHKVFMVKPEEPFQPVKEATQL [F38C], for which the “area with substrate ENLYFQC” value turned out to be 0.104, the “area with substrate ENLYFQD” value is 0.0677, the “area with substrate ENLYFQF” value amounted to 0.0308 and the “area with substrate ENLYFQG” value came to 0.0902. In addition, the “area with substrate ENLYFQH” value was determined as 0.0794, the “area with substrate ENLYFQI” value came to 0.0494, the “area with substrate ENLYFQM” value is 0.0873 and the “area with substrate ENLYFQR” value stood at 0.0596. The “area with substrate ENLYFQS” value stood at 0.0915, the “area with substrate ENLYFQT” value was 0.05, the “area with substrate ENLYFQW” value turned out to be 0.0574 and the “area with substrate ENLYFQY” value was 0.0741.
As for MGESLFKGPRDYNPISSSICHLTNESWGHTTSLYGIGFGPFIITNKHLFRRNNGTLVVQSLHGVFKVKDTTTLQQHLVDGRDMIIIRMPKDFPPFPQKLKFREPQREERICLVTTNFQTKSMSSMVSDTSCTFPSGDGIFWKHWIQTKDGQCGSPLVSTRDGFIVGIHSASNFTNTNNYFTSVPKNFMELLTNQEAQQWVSGWRLNADSVLWGGHKVFMVKPEEPFQPVKEATQL [D27W], the “area with substrate ENLYFQC” value is 0.0765, the “area with substrate ENLYFQD” value was determined as 0.0523, the “area with substrate ENLYFQE” value was found to be 0.0605 and the “area with substrate ENLYFQF” value was found to be 0.021. The “area with substrate ENLYFQG” value came out at 0.0968, the “area with substrate ENLYFQH” value was determined as 0.0855, the “area with substrate ENLYFQI” value came to 0.0558 and the “area with substrate ENLYFQL” value is 0.0594. In addition, the “area with substrate ENLYFQM” value was 0.0715, the “area with substrate ENLYFQN” value was determined as 0.0768, the “area with substrate ENLYFQP” value came to 0.0476 and the “area with substrate ENLYFQQ” value was found to be 0.0651. Besides, the “area with substrate ENLYFQR” value stood at 0.0605, the “area with substrate ENLYFQS” value is 0.0903, the “area with substrate ENLYFQT” value stood at 0.0613 and the “area with substrate ENLYFQV” value turned out to be 0.057. In addition, the “area with substrate ENLYFQW” value is 0.066 and the “area with substrate ENLYFQY” value stood at 0.0708.
As for MGESLFKGPRDYNPISSSICHLTNESDGHTASLYGIGFGPFIITNKHLFRRNNGTLVVQSLHGVFKVKDTTTLQQHLVDGRDMIIIRMPKDFPPFPQKLKFREPQREERICLVTTNFQTKSMSSMVSDTSCTFPSGDGIFWKHWIQTKDGQCGSPLVSTRDGFIVGIHSASNFTNTNNYFTSVPKNFMELLTNQEAQQWVSGWRLNADSVLWGGHKVFMVKPEEPFQPVKEATQL [T31A], the “area with substrate ENLYFQC” value came out at 0.122, the “area with substrate ENLYFQF” value was determined as 0.106, the “area with substrate ENLYFQH” value was 0.0934 and the “area with substrate ENLYFQI” value was determined as 0.0535. Moreover, the “area with substrate ENLYFQK” value came out at 0.0551, the “area with substrate ENLYFQL” value is 0.102, the “area with substrate ENLYFQR” value was 0.0441 and the “area with substrate ENLYFQS” value came out at 0.103. Besides, the “area with substrate ENLYFQW” value turned out to be 0.0472.
Take MGESLFKGPRDYNPISSSICHLTNESDGHTTSLYGTGFGPFIITNKHLFRRNNGTLVVQSLHGVFKVKDTTTLQQHLVDGRDMIIIRMPKDFPPFPQKLKFREPQREERICLVTTNFQTKSMSSMVSDTSCTFPSGDGIFWKHWIQTKDGQCGSPLVSTRDGFIVGIHSASNFTNTNNYFTSVPKNFMELLTNQEAQQWVSGWRLNADSVLWGGHKVFMVKPEEPFQPVKEATQL [I36T]: the “area with substrate ENLYFQC” value stood at 0.0805, the “area with substrate ENLYFQG” value is 0.0837, the “area with substrate ENLYFQI” value was 0.056 and the “area with substrate ENLYFQK” value stood at 0.0525. Also, the “area with substrate ENLYFQL” value came to 0.0621, the “area with substrate ENLYFQN” value turned out to be 0.0838, the “area with substrate ENLYFQR” value was 0.0458 and the “area with substrate ENLYFQS” value was found to be 0.0887. Moreover, the “area with substrate ENLYFQT” value was 0.0604, the “area with substrate ENLYFQW” value was 0.054 and the “area with substrate ENLYFQY” value worked out at 0.0591.
With MGESLFKGPRDYNPISSSICHLTNESDGHTTSLYGSGFGPFIITNKHLFRRNNGTLVVQSLHGVFKVKDTTTLQQHLVDGRDMIIIRMPKDFPPFPQKLKFREPQREERICLVTTNFQTKSMSSMVSDTSCTFPSGDGIFWKHWIQTKDGQCGSPLVSTRDGFIVGIHSASNFTNTNNYFTSVPKNFMELLTNQEAQQWVSGWRLNADSVLWGGHKVFMVKPEEPFQPVKEATQL [I36S], the “area with substrate ENLYFQC” value was 0.0731, the “area with substrate ENLYFQD” value is 0.0611, the “area with substrate ENLYFQF” value came out at 0.0665 and the “area with substrate ENLYFQG” value was determined as 0.0546. Moreover, the “area with substrate ENLYFQH” value was determined as 0.05, the “area with substrate ENLYFQI” value was found to be 0.0816, the “area with substrate ENLYFQK” value worked out at 0.0509 and the “area with substrate ENLYFQL” value stood at 0.044. Also, the “area with substrate ENLYFQM” value was found to be 0.0582, the “area with substrate ENLYFQN” value is 0.0546, the “area with substrate ENLYFQQ” value is 0.0348 and the “area with substrate ENLYFQR” value amounted to 0.0504. Further, the “area with substrate ENLYFQS” value was 0.0678, the “area with substrate ENLYFQV” value was 0.0463 and the “area with substrate ENLYFQY” value amounted to 0.0318.
Turning to MGESLFKGPRDYNPISSSICHLTNESDGHTTSLYGMGFGPFIITNKHLFRRNNGTLVVQSLHGVFKVKDTTTLQQHLVDGRDMIIIRMPKDFPPFPQKLKFREPQREERICLVTTNFQTKSMSSMVSDTSCTFPSGDGIFWKHWIQTKDGQCGSPLVSTRDGFIVGIHSASNFTNTNNYFTSVPKNFMELLTNQEAQQWVSGWRLNADSVLWGGHKVFMVKPEEPFQPVKEATQL [I36M], the “area with substrate ENLYFQC” value was 0.132, the “area with substrate ENLYFQD” value is 0.0671, the “area with substrate ENLYFQE” value is 0.0536 and the “area with substrate ENLYFQF” value amounted to 0.0454. Besides, the “area with substrate ENLYFQG” value turned out to be 0.0797, the “area with substrate ENLYFQH” value worked out at 0.0813, the “area with substrate ENLYFQI” value stood at 0.0571 and the “area with substrate ENLYFQK” value was 0.0641. The “area with substrate ENLYFQL” value came to 0.0672, the “area with substrate ENLYFQM” value was 0.0953, the “area with substrate ENLYFQQ” value came to 0.0726 and the “area with substrate ENLYFQR” value came out at 0.0674. Moreover, the “area with substrate ENLYFQS” value came to 0.0987.
In the case of MGESLFKGPRDYNPISSSICHLTNESDGHTTSLYGIGFGPFIITNKHLFPRNNGTLVVQSLHGVFKVKDTTTLQQHLVDGRDMIIIRMPKDFPPFPQKLKFREPQREERICLVTTNFQTKSMSSMVSDTSCTFPSGDGIFWKHWIQTKDGQCGSPLVSTRDGFIVGIHSASNFTNTNNYFTSVPKNFMELLTNQEAQQWVSGWRLNADSVLWGGHKVFMVKPEEPFQPVKEATQL [R50P], the “area with substrate ENLYFQC” value came out at 0.0993, the “area with substrate ENLYFQD” value is 0.0578, the “area with substrate ENLYFQG” value turned out to be 0.0618 and the “area with substrate ENLYFQH” value stood at 0.052. The “area with substrate ENLYFQI” value stood at 0.0647, the “area with substrate ENLYFQK” value was determined as 0.0755, the “area with substrate ENLYFQL” value was 0.0627 and the “area with substrate ENLYFQM” value worked out at 0.0747. Besides, the “area with substrate ENLYFQN” value stood at 0.0778, the “area with substrate ENLYFQP” value came to 0.0657, the “area with substrate ENLYFQQ” value was determined as 0.0763 and the “area with substrate ENLYFQR” value came out at 0.0776. In addition, the “area with substrate ENLYFQS” value was 0.0885, the “area with substrate ENLYFQT” value was 0.0645, the “area with substrate ENLYFQV” value was 0.0611 and the “area with substrate ENLYFQW” value was found to be 0.0581. For the same variant, the “area with substrate ENLYFQY” value turned out to be 0.0857.

(Values after the supplement of paper PMC12217912.)
